# Measured values from the supplement of paper PMC7826260.
# Some of the results follow. One pool of 16,384 single-stranded DNAs met each Rep nickase domain in vitro at 3 µM enzyme and 37 °C for 1 h; the strands have 90 letters, of which the middle is given. Numbers give uncut DNA relative to the enzyme-free pool, as log2; uncut sequences lie near 0, cut ones below; no hit call is given. Because reads are shares of a total, they shift together; uncut strands gain when others are lost, and binding without cutting may add a little.
# Test system: T1, Rep nickase domain of tomato golden mosaic virus
# T1 sequence (residues 1-124, tag not shown): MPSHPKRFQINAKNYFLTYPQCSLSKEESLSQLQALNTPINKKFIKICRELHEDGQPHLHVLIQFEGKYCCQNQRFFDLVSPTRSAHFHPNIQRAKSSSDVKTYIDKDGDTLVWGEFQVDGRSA
# Experiment: uncleaved DNA left, log2 of reads against the no-enzyme library (log2 ratio); higher = less cleavage (more negative = more Rep cleavage of the k-mer); sequences stand for … in CTCGTCCG…ACCGGAGA
# Protocol: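 A pool of 90-nt single-stranded DNAs with seven random bases just before the constant AC of the nick site (name = the seven bases) was cut by 3 µM recombinant His6-SUMO-tagged Rep nickase domain (300 nM DNA, 50 mM HEPES pH 8.0, 50 mM NaCl, 1 mM MnCl2, 1 h, 37 °C, three replicates). Uncut DNA was amplified and sequenced.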
row,Sequence,uncleaved DNA left (log2)
1,AATATGG,0.0528
2,AATCATC,-0.027
3,CGTTTTA,-0.00242
4,TACTAGC,0.0123
5,GATTCGG,0.126
6,AGGCCTA,0.0418
7,AGAGACC,-0.00682
8,GGAGTTG,0.175
9,CCCAGGA,-0.0484
10,TGCGCTG,0.0278
11,TAAAGAC,-0.0541
12,TCGCACT,-0.296
13,TATTGTA,-0.2
14,TCTCAAA,-0.0244
15,TATGCAT,-0.0544
16,AAGGAAA,0.188
17,ATTAAGG,0.108
18,GGTGATG,-0.0585
19,GTATTAC,-0.136
20,GACCATT,-0.263

row,Sequence,uncleaved DNA left (log2)
1,CGCGGCC,-0.0162
2,GCGAGCC,0.068
3,AAGCGGA,0.164
4,CGTTGTT,-0.146
5,GCCTATA,0.0649
6,GTGTAGA,0.218
7,TGCTACT,-0.579
8,GCTGACC,0.141
9,TTCCTGT,-0.183
10,AAGGTAT,0.0725
11,TGGCTCA,0.103
12,TGTCGAG,-0.13
13,GGTGGCC,0.185
14,TGCAAAA,0.000169
15,GGGACAT,0.000714
16,CATCGTA,-0.0327
17,TGAGCTC,0.0257
18,GCCGGAG,0.156
19,AGACGAA,-0.045
20,CAGTGAA,0.0184
